The text below walks through data of publication PMC13225913 (Journal of medicinal chemistry, 2025).

Like-named read-outs stand apart in the source and are kept apart here.

The target in data set [1] is T1, recombinant human S1PR4 membranes (Homo sapiens, UniProt O95977).
T1 sequence (O95977 1-384): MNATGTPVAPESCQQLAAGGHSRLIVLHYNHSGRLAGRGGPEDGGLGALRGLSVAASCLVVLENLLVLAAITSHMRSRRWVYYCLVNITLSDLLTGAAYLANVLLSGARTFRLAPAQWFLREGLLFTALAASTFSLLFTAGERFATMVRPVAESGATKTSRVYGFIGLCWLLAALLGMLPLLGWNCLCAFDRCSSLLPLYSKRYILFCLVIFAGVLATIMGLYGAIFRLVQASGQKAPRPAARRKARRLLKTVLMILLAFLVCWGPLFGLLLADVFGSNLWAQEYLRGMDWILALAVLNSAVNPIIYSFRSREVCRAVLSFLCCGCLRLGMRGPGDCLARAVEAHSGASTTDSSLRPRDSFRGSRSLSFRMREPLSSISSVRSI
Kind of data set: biochemical.

The target in data set [2] is recombinant human S1PR1 membranes (Homo sapiens, UniProt P21453). In words: biochemical.
UniProt P21453, sequence (P21453 whole entry): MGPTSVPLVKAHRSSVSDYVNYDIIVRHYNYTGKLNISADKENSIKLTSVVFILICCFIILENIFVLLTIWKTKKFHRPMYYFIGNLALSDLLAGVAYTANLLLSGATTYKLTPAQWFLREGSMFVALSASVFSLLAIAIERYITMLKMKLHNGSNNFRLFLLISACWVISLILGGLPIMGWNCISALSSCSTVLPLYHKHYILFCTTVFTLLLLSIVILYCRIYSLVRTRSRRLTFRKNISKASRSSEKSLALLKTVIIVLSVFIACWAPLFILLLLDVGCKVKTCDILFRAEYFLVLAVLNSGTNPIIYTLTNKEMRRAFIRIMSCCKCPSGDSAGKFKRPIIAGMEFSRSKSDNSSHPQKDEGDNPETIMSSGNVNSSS
Data set [3] deals with recombinant human S1PR3 membranes (Homo sapiens, UniProt Q99500). In words: biochemical.
UniProt Q99500, sequence (Q99500 whole entry): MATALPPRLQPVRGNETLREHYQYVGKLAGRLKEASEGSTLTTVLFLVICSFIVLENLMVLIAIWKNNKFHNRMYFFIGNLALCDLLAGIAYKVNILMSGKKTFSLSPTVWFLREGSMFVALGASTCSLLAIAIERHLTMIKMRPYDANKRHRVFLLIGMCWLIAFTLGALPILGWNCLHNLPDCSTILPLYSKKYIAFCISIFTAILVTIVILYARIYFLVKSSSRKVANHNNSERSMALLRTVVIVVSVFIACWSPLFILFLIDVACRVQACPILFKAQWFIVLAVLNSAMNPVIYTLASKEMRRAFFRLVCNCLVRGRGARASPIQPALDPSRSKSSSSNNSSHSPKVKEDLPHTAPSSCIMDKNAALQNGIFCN
The target in data set [4] is recombinant human S1PR2 membranes (Homo sapiens, UniProt O95136). In words: biochemical.
UniProt O95136, sequence (O95136 whole entry): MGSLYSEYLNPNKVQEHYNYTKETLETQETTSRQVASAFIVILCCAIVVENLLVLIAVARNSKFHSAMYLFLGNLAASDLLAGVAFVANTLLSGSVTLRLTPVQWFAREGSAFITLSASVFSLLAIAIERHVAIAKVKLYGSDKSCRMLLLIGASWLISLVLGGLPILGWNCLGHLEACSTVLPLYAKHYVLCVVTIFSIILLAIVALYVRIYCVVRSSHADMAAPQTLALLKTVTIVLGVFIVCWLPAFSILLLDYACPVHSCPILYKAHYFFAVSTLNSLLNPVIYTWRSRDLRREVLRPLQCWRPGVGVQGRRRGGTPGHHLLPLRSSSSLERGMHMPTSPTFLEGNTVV
Data set [5] deals with recombinant human S1PR5 membrane (Homo sapiens, UniProt Q9H228).
UniProt Q9H228, sequence (Q9H228 whole entry): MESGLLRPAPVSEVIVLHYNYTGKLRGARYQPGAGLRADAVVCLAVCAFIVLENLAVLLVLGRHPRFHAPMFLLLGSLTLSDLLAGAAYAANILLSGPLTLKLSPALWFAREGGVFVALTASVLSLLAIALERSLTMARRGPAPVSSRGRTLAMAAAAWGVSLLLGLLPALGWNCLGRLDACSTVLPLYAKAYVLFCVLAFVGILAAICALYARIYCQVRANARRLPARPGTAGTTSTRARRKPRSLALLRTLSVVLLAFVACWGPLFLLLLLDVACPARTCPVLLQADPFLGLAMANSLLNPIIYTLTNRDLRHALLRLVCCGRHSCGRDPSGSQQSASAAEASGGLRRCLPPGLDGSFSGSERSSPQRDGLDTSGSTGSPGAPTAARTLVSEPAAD
The conditions of data set [6]: rodents, rapid washout; cited from earlier work.
Setting [7] is: read-out: IC50 S1PR5, [^32P]S1P competition, recombinant human S1PR5 membrane.

For `Cc1cc(O[C@H]2CC[C@H](C(C)(C)C)CC2)c(CN2CCC(C(=O)O)CC2)c2ccccc12` [Compound 7, 1-((2-(((trans)-4-(tert-Butyl)cyclohexyl)oxy)-4-methylnaphthalen-1-yl)methyl)piperidine-4-carboxylic acid, reference compound], the IC50 in data set [1], in data set [2], in data set [3] and in data set [4] was greater than 1 µM in each case. As to `COc1cc(O[C@H]2CC[C@H](C(C)(C)C)CC2)c(CN2CCC(C(=O)O)CC2)c2ccccc12` [Compound 7b, 1-((2-(((trans)-4-(tert-Butyl)cyclohexyl)oxy)-4-methoxynaphthalen-1-yl)methyl)piperidine-4-carboxylic acid], in data set [5], the IC50 is greater than 1 µM. On the same count and under the same terms, under `Cc1cc(O[C@H]2CC[C@H](C(C)(C)C)CC2)c(CN2CCC(C(=O)O)CC2)c2cc(F)ccc12` [Compound 12c, 1-((2-(((trans)-4-(tert-Butyl)cyclohexyl)oxy)-7-fluoro-4-methylnaphthalen-1-yl)methyl) piperidine-4-carboxylic acid] stands 0.2 ± 0.0366 µM.

Consider `Cc1cc(O[C@H]2CC[C@H](C(C)(C)C)CC2)c(CNCCC(=O)O)c2ccccc12` [Compound 16a, 3-(((2-(((trans)-4-(tert-Butyl)cyclohexyl)oxy)-4-methylnaphthalen-1-yl)methyl)amino) propanoic acid], for which the IC50 in data set [1], in data set [2], in data set [3] and in data set [4] was greater than 1 µM each time. Regarding `Cc1cc(O[C@H]2CC[C@H](C(C)(C)C)CC2)c(CNCC(F)C(=O)O)c2ccccc12` (stereo partly drawn) [Compound 16c, 3-(((2-(((trans)-4-(tert-Butyl)cyclohexyl)oxy)-4-methylnaphthalen-1-yl)methyl)amino)-2-fluoropropanoic acid], the half-inhibitory concentration (IC50) in data set [5] was 0.252 ± 0.0343 µM. Regarding `Cc1cc(O[C@H]2CC[C@H](C(C)(C)C)CC2)c(CN(C)CCCC(=O)O)c2ccccc12` [Compound 16d, 4-(((2-(((trans)-4-(tert-Butyl)cyclohexyl)oxy)-4-methylnaphthalen-1-yl)methyl)(methyl)amino) butanoic acid], the IC50 in data set [5] is 0.348 ± 0.0288 µM.

Consider `Cc1cc(O[C@H]2CC[C@H](C(C)(C)C)CC2)c(CN(C)CCC(=O)O)c2ccccc12` [Compound 16e], for which the IC50 in data set [5] (setting [7]) is 0.475 ± 0.0274 µM. Regarding `Cc1cc(O[C@H]2CC[C@H](C(C)(C)C)CC2)c(CNCC(F)CO)c2ccccc12` (stereo partly drawn) [Compound 16h, 3-(((2-(((trans)-4-(tert-Butyl)cyclohexyl)oxy)-4-methylnaphthalen-1-yl)methyl)amino)-2-fluoropropan-1-ol], the IC50 in data set [5] was 0.3 ± 0.066 µM. Consider `Cc1cc(O[C@H]2CC[C@H](C(C)(C)C)CC2)c(CNCC(O)CF)c2ccccc12` (some centres unmarked) [Compound 16i], for which the concentration for half-maximal inhibition (IC50) in data set [5] (setting [7]) stood at 0.324 ± 0.0615 µM.

Take `CNS(=O)(=O)CCCNCc1c(O[C@H]2CC[C@H](C(C)(C)C)CC2)cc(C)c2ccccc12` [Compound 16k, 3-(((2-(((trans)-4-(tert-Butyl)cyclohexyl)oxy)-4-methylnaphthalen-1-yl)methyl)amino)-N-methyl propane-1-sulfonamide]: the half-inhibitory concentration (IC50) in data set [5] (setting [7]) is greater than 1 µM. Consider `CSCCCNCc1c(O[C@H]2CC[C@H](C(C)(C)C)CC2)cc(C)c2ccccc12` [Compound 16m, N-((2-(((trans)-4-(tert-Butyl)cyclohexyl)oxy)-4-methylnaphthalen-1-yl)methyl)-3-(methylthio) propan-1-amine], for which the half-maximal inhibitory concentration (IC50) in data set [5] was greater than 1 µM.

On to `Cc1cc(O[C@H]2CC[C@H](C(C)(C)C)CC2)c(CNCCCOCCF)c2ccccc12` [Compound 16n], for which, in data set [5] (setting [7]), the IC50 is 0.312 ± 0.0435 µM. Same read-out and setting: under `Cc1cc(O[C@H]2CC[C@H](C(C)(C)C)CC2)c(CN2CCN(C)CC2)c2ccccc12` [Compound 16o] stands greater than 1 µM. As to `Cc1cc(O[C@H]2CC[C@H](C(C)(C)C)CC2)c(CN2CCN(CCF)CC2)c2ccccc12` [Compound 16p, 1-((2-(((trans)-4-(tert-Butyl)cyclohexyl)oxy)-4-methylnaphthalen-1-yl)methyl)-4-(2-fluoroethyl)piperazine], the IC50 in data set [5] is greater than 1 µM. Turning to `COc1cc(C)c2ccccc2c1CNCCC(=O)O` [Compound 19a, 3-(((2-Methoxy-4-methylnaphthalen-1-yl)methyl)amino)propanoic acid], the IC50 in data set [5] is greater than 1 µM. With `Cc1cc(OCCF)c(CNCCC(=O)O)c2ccccc12` [Compound 19b, 3-(((2-(2-Fluoroethoxy)-4-methylnaphthalen-1-yl)methyl)amino)propanoic acid], in data set [5], the IC50 was greater than 1 µM. Turning to `Cc1cc(OCCCF)c(CNCCC(=O)O)c2ccccc12` [Compound 19c, 3-(((2-(3-Fluoropropoxy)-4-methylnaphthalen-1-yl)methyl)amino)propanoic acid], the IC50 in data set [5] was greater than 1 µM. With `Cc1cc(OCCCCF)c(CNCCC(=O)O)c2ccccc12` [Compound 19d, 3-(((2-(4-Fluorobutoxy)-4-methylnaphthalen-1-yl)methyl)amino)propanoic acid], the IC50 in data set [5] is greater than 0.9 µM. Still for that read-out and setting: next, `Cc1cc(OCCCCCF)c(CNCCC(=O)O)c2ccccc12` [Compound 19e, 3-(((2-((5-Fluoropentyl)oxy)-4-methylnaphthalen-1-yl)methyl)amino)propanoic acid]: greater than 1 µM. With `COc1c(C)ccc(Nc2c(C)cc([18F])cc2C)c1C(N)=O` [[^18F]TEFM78], the brain washout time in data set [6] is no more than 20 min.

What is called IC50 is the midpoint of a concentration-inhibition curve.
